Test results: ChEMBL document CHEMBL1156829
Over roughly 5,400 compounds, “IFI” has its median near 2; the highest 2% begin near 22. The list shows a part of the results.

Experiment: NOVARTIS: Inhibition Frequency Index (IFI) - the number of HTS assays where a compound showed > 50% inhibition/induction, expressed as a percentage of the number of assays in which the compound was tested.
Type: functional

Row | Compound | IFI [%]
1 | O=C(c1ccccc1)C1NC1c1ccc(Br)cc1 (stereo unspecified) | 1.56
2 | CC(=O)OC1(C)CC(C)C(=O)C(C(O)CC2CC(=O)NC(=O)C2)C1 (stereo unspecified) | 22.6
3 | Clc1cccc(CNC2CCN(CCc3ccccc3)CC2)c1 | 0.781
4 | CC[C@H]1CN2CC[C@@H]1C[C@@H]2[C@@H](O)c1ccnc2ccc(OC)cc12 | 2.16
5 | COc1ccc(/C=C\c2cc[n+](C)cc2)cc1OC | 0
6 | COc1ccccc1N1CCN(Cc2cc(C)c(C)cc2O)CC1 | 2.94
7 | CCN1C(=Cc2sc3ccccc3[n+]2CC)[Se]c2ccccc21 | 22.6
8 | O=C(Cn1c2ccccc2c(=O)c2ccccc21)Nc1ccc([N+](=O)[O-])c(Br)c1 | 3.57
9 | C/C(=C\c1csc(C)n1)[C@@H]1C[C@@H]2O[C@@H]2CCC[C@H](C)C(O)[C@@H](C)C(=O)C(C)(C)[C@@H](O)CC(=O)O1 (stereo partly specified) | 6.9
10 | C=CCNC(=S)N1CCc2c([nH]c3ccccc23)C1C(F)(F)F (stereo unspecified) | 2.44
11 | C[C@@H]1C[C@H]2CC[C@H](O2)[C@H](C)C(=O)O[C@@H](C)C[C@@H]2CC[C@@H](O2)[C@@H](C)C(=O)O[C@H](C)C[C@H]2CC[C@@H](O2)[C@H](C)C(=O)O[C@@H](C)C[C@@H]2CC[C@@H](O2)[C@@H](C)C(=O)O1 | 12.5
12 | C=C[C@H]1CN2CC[C@H]1C[C@H]2[C@H](OC(=O)c1ccc(Cl)cc1)c1ccnc2ccccc12 | 1.04
13 | COc1ccc2nc(NC(=N)N)nc(C)c2c1 | 0
14 | COC(=O)[C@]1(C)CC[C@]2(C)CC[C@]3(C)C4=CC=C5C(=CC(=O)C(O)=C5C)[C@]4(C)CC[C@@]3(C)[C@@H]2C1 | 21.4
15 | CCN1CCC(N2CCC(n3c(C4CCC4)nc4cc(F)ccc43)CC2)CC1 | 2.65
16 | O=C(NNC(=O)c1csnn1)c1ccc(Cl)cc1 | 1
17 | NC(=O)c1ccc2c(c1)N=C(c1cccnc1)N(C1CC1)C2 | 3.66
18 | CC=C[C@H]1O[C@@](O)([C@@H](C)C(O)C(C)[C@H]2OC(=O)C(OC)=CC(C)=C[C@@H](C)[C@@H](O)[C@@H](C)[C@@H](O)C(C)CC(C)=CC=C[C@@H]2OC)C[C@@H](O[C@H]2C[C@@H](O)[C@H](OC(N)=O)[C@@H](C)O2)[C@@H]1C (stereo partly specified) | 15.5
19 | CC(Cc1ccccc1Sc1ccccc1O)N(C)C (stereo unspecified) | 7.14
20 | c1ccc(C[n+]2ccc(-c3nc4ccccc4s3)cc2)cc1 | 0.971
21 | CS/C(Cl)=C(/NC(C)=O)[P+](c1ccccc1)(c1ccccc1)c1ccccc1 | 5.34
22 | C=C[C@H]1CN2CC[C@H]1C[C@H]2[C@H](OC(=O)CC)c1ccnc2ccccc12 | 1.87

Row | Compound | IFI [%]
23 | C=C[C@H]1CN2CC[C@H]1C[C@@H]2[C@@H](OC(=O)Cc1ccccc1)c1ccnc2ccccc12 | 0.935
24 | CC=C[C@H]1O[C@@](O)([C@@H](C)C(O)C(C)[C@H]2OC(=O)C(OC)=CC(C)=C[C@@H](C)[C@H](O)C(CC)[C@@H](O)[C@H](C)CC(C)=CC=C[C@@H]2OC)C[C@@H](O[C@H]2C[C@@H](O)[C@H](OC(N)=O)[C@@H](C)O2)[C@@H]1C (stereo partly specified) | 17.5
25 | O[Si](CCCN1CCCCC1)(c1ccccc1)C1CCCCC1 (stereo unspecified) | 2.78
26 | CC(C)[C@@]1(NC(=O)[C@@H]2C[C@@H]3c4cccc5[nH]cc(c45)C[C@H]3N(C)C2)O[C@@]2(O)[C@@H]3CCCN3C(=O)[C@H](Cc3ccccc3)N2C1=O | 0.571
27 | CCC(C)N1CCN(Cc2cccc(OC)c2OC)CC1 (stereo unspecified) | 3.17
28 | CCn1nc(/C=C/c2ccccc2)nc2c(=O)n(C)c(=O)nc1-2 | 16.7
29 | COC1=CC(C)=C[C@@H](C)[C@@H](O)[C@H](C)CC(C)=CC=C[C@H](OC)[C@@H](C(C)C(O)[C@H](C)[C@@]2(O)C[C@@H](O)[C@H](C)[C@@H](C(C)C)O2)OC1=O (stereo partly specified) | 19.6
30 | CN1CC=C(/C=C/c2c[nH]c3ccccc23)CC1 | 0
31 | NC(=O)CN1CC(O)CC1=O (stereo unspecified) | 0
32 | CN1C2CCC1/C(=C\c1ccsc1)C(=O)/C2=C\c1ccsc1 | 0
33 | O=C(c1ccccc1)c1cc(Cl)ccc1NCCBr | 0
34 | OP1(O)=NP(O)(O)=NP(O)(O)=NP(O)(O)=N1 | 1.51
35 | C=CC12CCN(CC1)C(C(O)c1ccnc3ccc(OC)cc13)C2 (stereo unspecified) | 0
36 | CC=C[C@H]1O[C@@](O)([C@H](C)C(O)C(C)[C@@H]2OC(=O)C(OC)=CC(C)=C[C@H](C)[C@H](O)[C@H](CC)[C@H](O)C(C)CC(C)=CC=C[C@H]2OC)C[C@@H](O[C@@H]2C[C@H](O)[C@@H](OC(N)=O)[C@H](C)O2)[C@@H]1C (stereo partly specified) | 15
37 | CC1=CC(=O)OC[C@]23CCC(C)=C[C@H]2O[C@@H]2C[C@@H](OC(=O)C=CC=CC(=O)OCC1)[C@@]3(C)[C@]21CO1 | 22.6
38 | C[C@@H]1C[C@@H]([C@H](O)CC2CC(=O)NC(=O)C2)C(=O)[C@@H](C)C1 | 19.7
39 | CCOc1ccc(N2C(=O)NC(=O)/C(=C\c3cn(C(C)=O)c4ccccc34)C2=O)cc1 | 4.51
40 | O=C(CN1CCCC1)Nc1ccc(Cc2ccc(NC(=O)CN3CCCC3)cc2)cc1 | 1.07
41 | CC1=CC(=O)OC[C@]23C[C@H](O)C(C)=C[C@H]2O[C@@H]2C[C@@H](OC(=O)C=CC=CC(=O)OCC1)[C@@]3(C)[C@]21CO1 | 22.6
42 | O=C1c2ccccc2-c2nc3nnnn3nc21 | 42.9
43 | CC(C)NC(=O)c1cn(Cc2ccccc2)cc(C(=O)NCCc2nc3ccccc3[nH]2)c1=O | 4.54
44 | CN1CCN(c2ccc(NC(=O)Oc3ccccc3)cc2)CC1 | 1.21

Row | Compound | IFI [%]
45 | C[C@@H]1C[C@@H](C)C(=O)[C@@H](C(O)CC2CC(=O)NC(=O)C2)C1 (stereo partly specified) | 23.4
46 | CCOc1ccc(C2c3[nH]c4ccccc4c3CCN2C(=O)c2cc3cc(Br)ccc3o2)cc1 (stereo unspecified) | 1.16
47 | Oc1ccccc1C=Nc1ccccc1[Te]c1ccccc1N=Cc1ccccc1O | 8.21
48 | Cc1nc(-c2ccccn2)nc(NCCc2ccccc2)c1Cl | 5.41
49 | C=C[C@H]1CN2CC[C@H]1C[C@H]2[C@H](OC(C)=O)c1ccnc2ccccc12 | 1.89
50 | CC(Cc1ccccc1)NCCCCCNC(C)Cc1ccccc1 (stereo unspecified) | 1.85
51 | CC1CCC2C(C)C(=O)OC3OC4(C)CCC1C32OO4 (stereo unspecified) | 7.14
52 | Cc1ccc(NC=C2C(=O)NC(=S)NC2=O)cc1 | 0
53 | COc1ccc(-c2nc3ccccc3n2C2CCN(Cc3ccc(C)o3)CC2)cc1OC | 0.962
54 | C=C[C@H]1CN2CC[C@H]1C[C@@H]2[C@@H](OC(=O)c1ccco1)c1ccnc2ccccc12 | 1.65
55 | C=C[C@H]1CN2CC[C@H]1C[C@H]2[C@H](OC(=O)CCC)c1ccnc2ccccc12 | 0.917
56 | Cc1ccc(-n2c(C)c(C(=O)c3ccccc3)c3cc(O)ccc32)cc1 | 0
57 | C=CC1CN2CCC1CC2[C@H](c1ccnc2ccccc12)S(=O)(=O)O (stereo partly specified) | 0
58 | CC(Cc1ccccc1)NCc1ccccc1O (stereo unspecified) | 3.12
59 | O=C1CN=C(c2ccccc2)c2cc(Cl)ccc2N1Cc1cc(=O)n2ccccc2n1 | 0
60 | N#Cc1cc(N2CC3CC(C2)c2cccc(=O)n2C3)c([N+](=O)[O-])cc1C#N (stereo unspecified) | 0
61 | O=C(NNc1cccc(F)n1)C(F)(F)F | 1.25
62 | C=C[C@H]1CN2CC[C@H]1C[C@H]2[C@H](OC(=O)CCCC)c1ccnc2ccccc12 | 4.59
63 | CCCN[P+](CC(C)C)(NCCC)NCCC | 10.9
64 | O=c1cccc2n1CC1CC2CN(Cc2cccc(O)c2)C1 (stereo unspecified) | 0
65 | O=C(Cn1c2ccccc2c(=O)c2ccccc21)Nc1ccc(Cl)cc1C(=O)c1ccccc1 | 6.02
66 | CCN1CCN(Cc2cc(Cl)cc(Cl)c2O)CC1 | 0

Row | Compound | IFI [%]
67 | O=C(CCl)Nc1ccc(Cl)cc1 | 3.54
68 | CCCC[C@@H](C)C(O)[C@H]1C(=O)N[C@@H](CC)C(=O)N(C)CC(=O)N(C)[C@@H](CC(C)C)C(=O)N[C@@H](C(C)C)C(=O)N(C)[C@@H](CC(C)C)C(=O)N[C@@H](C)C(=O)N[C@@H](C)C(=O)N(C)[C@@H](CC(C)C)C(=O)N(C)[C@@H](CC(C)C)C(=O)N(C)[C@@H](C(C)C)C(=O)N1C (stereo partly specified) | 3.45
69 | COc1cc2c(cc1O)CC[n+]1cc3c(OC)c(OC)ccc3cc1-2 | 0
70 | C=C[C@H]1CN2CC[C@H]1C[C@@H]2[C@@H](OC(C)=O)c1ccnc2ccccc12 | 1.83
71 | Cc1nc2ccccc2c(=O)n1-c1ccc([N+](=O)[O-])cc1 | 0
72 | OC1(c2ccc(Br)cc2)CCN(C2CCN(CCc3ccccc3)CC2)CC1 | 4.1
73 | CN(C)c1cc[n+](OC(=O)N2CCCCC2)cc1 | 0
74 | O=C1C(Nc2ccc(Cl)cc2)=C(N2CCCCC2)C(=O)c2ccccc21 | 5.33
75 | CCOP(=O)(OCC)C(O)c1ccc(C)cc1 (stereo unspecified) | 0
76 | C=C[C@H]1CN2CC[C@H]1C[C@H]2[C@H](OC(=O)c1cccc([N+](=O)[O-])c1)c1ccnc2ccccc12 | 0.926
77 | Cc1cc(N(C)C)cc(C)[n+]1OC(=O)N(c1ccccc1)c1ccccc1 | 16.7
78 | COc1cc[n+](OC(=O)N2CCCCC2)c(C)c1 | 0
79 | CC1=C[C@H]2O[C@@H]3C[C@H]4OC(=O)C=CC=C[C@H]([C@@H](C)O)OCC[C@@H](C)[C@H](O)C(=O)OC[C@@]2(CC1)[C@]4(C)[C@@]31CO1 | 24.5
80 | C=CC(C)(CCC=C(C)C)c1ccc2c3c(c[nH]c13)CC(CO)NC(=O)C(C(C)C)N2C (stereo unspecified) | 11.3
81 | CC[C@@H]1CN2CC[C@H]1C[C@H]2[C@H](O)c1ccnc2ccc(OC)cc12 | 1.32
82 | COc1ccc(NC2=C(N3CCCCC3)C(=O)c3ccccc3C2=O)cc1 | 18.7
83 | C=CCN1C(=O)/C(=C\c2cc(Cl)c(O)c(OC)c2)C(=O)NC1=S | 7.69
84 | C=C[C@H]1CN2CC[C@H]1C[C@@H]2[C@@H](OC(=O)c1cccs1)c1ccnc2ccccc12 | 2.78
85 | COc1ccccc1-n1c(/C=C/c2cc(Br)ccc2O)nc2ccccc2c1=O | 8.06
86 | CC1(C)CN=C(NCc2ccccc2Cl)S1 | 0
